# Experimental data taken from the supplement of paper PMC8728848.
# Some of the results follow.
# B1: MGL6A (Homo sapiens) (protein)
# chain: MTRTYENFQYLENKVKVQGFKNGPLPLQSLLQRLCSGPCHLLLSLGLGLLLLVIICVVGFQNSKFQRDLVTLRTDFSNFTSNTVAEIQALTSQGSSLEETIASLKAEVEGFKQERQAVHSEMLLRVQQLVQDLKKLTCQVATLNNNGEEASTEGTCCPVNWVEHQDSCYWFSHSGMSWAEAEKYCQLKNAHLVVINSREEQNFVQKYLGSAYTWMGLSDPEGAWKWVDGTDYATGFQNWKPGQPDDWQGHGLGGGEDCAHFTPDGRWNDDVCQRPYHWVCEAGLGQTSQESH
# Key:
# Assay in all cases: glycan array binding signal (z-score within array); higher = stronger binding
# Conditions in all cases: glycan notation: IUPAC condensed, linker removed; mutation: H262T
# [1] = molecular target: Gal(b1-3)GlcNAc(b1-2)Man(a1-3)[Gal(b1-3)GlcNAc(b1-2)Man(a1-6)]Man(b1-4)GlcNAc(b1-4)GlcNAc
# Summary of the method: (§1)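 The binding signal is a Z-score computed within each array. Data were drawn from 3228 arrays in the Consortium for Functional Glycomics database, restricted to those with a known protein sequence. Scores were averaged over arrays of the same protein sequence at different concentrations or buffers, and over linkers, and negative values can be taken as non-binding.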
# [2] = molecular target: Gal(b1-3)GlcNAc(b1-2)Man(a1-3)[Gal(b1-3)GlcNAc(b1-2)Man(a1-6)]Man(b1-4)GlcNAc(b1-4)[Fuc(a1-6)]GlcNAc
# Summary of the method: as §1
# [3] = molecular target: Gal(b1-3)GlcNAc(b1-2)Man(a1-3)[GlcNAc(b1-4)][Gal(b1-3)GlcNAc(b1-2)Man(a1-6)]Man(b1-4)GlcNAc(b1-4)GlcNAc
# Summary of the method: as §1
# [4] = molecular target: Gal(b1-3)GlcNAc(b1-2)[Gal(b1-3)GlcNAc(b1-6)]Man(a1-6)[Gal(b1-3)GlcNAc(b1-2)Man(a1-3)]Man(b1-4)GlcNAc(b1-4)GlcNAc
# Summary of the method: as §1
# [5] = molecular target: Gal(b1-3)GlcNAc(b1-3)Gal(b1-3)GlcNAc
# Summary of the method: as §1
# [6] = molecular target: Gal(b1-3)GlcNAc(b1-3)Gal(b1-4)Glc
# Summary of the method: as §1
# [7] = molecular target: Gal(b1-3)GlcNAc(b1-3)Gal(b1-4)GlcNAc
# Summary of the method: as §1
# [8] = molecular target: Gal(b1-3)GlcNAc(b1-3)Gal(b1-4)GlcNAc(b1-2)Man(a1-3)[Gal(b1-3)GlcNAc(b1-3)Gal(b1-4)GlcNAc(b1-2)Man(a1-6)]Man(b1-4)GlcNAc(b1-4)GlcNAc
# Summary of the method: as §1
# [9] = molecular target: Gal(b1-3)GlcNAc(b1-3)Gal(b1-4)GlcNAc(b1-2)[Gal(b1-3)GlcNAc(b1-3)Gal(b1-4)GlcNAc(b1-6)]Man(a1-6)[Gal(b1-3)GlcNAc(b1-3)Gal(b1-4)GlcNAc(b1-2)Man(a1-3)]Man(b1-4)GlcNAc(b1-4)[Fuc(a1-6)]GlcNAc
# Summary of the method: as §1
# [10] = molecular target: Gal(b1-3)GlcNAc(b1-3)Gal(b1-4)GlcNAc(b1-3)Gal(b1-4)GlcNAc(b1-2)[Gal(b1-3)GlcNAc(b1-3)Gal(b1-4)GlcNAc(b1-3)Gal(b1-4)GlcNAc(b1-6)]Man(a1-6)[Gal(b1-3)GlcNAc(b1-3)Gal(b1-4)GlcNAc(b1-3)Gal(b1-4)GlcNAc(b1-2)Man(a1-3)]Man(b1-4)GlcNAc(b1-4)[Fuc(a1-6)]GlcNAc
# Summary of the method: as §1
# [11] = molecular target: Gal(b1-3)GlcNAc(b1-3)Gal(b1-4)GlcNAc(b1-6)[Gal(b1-3)GlcNAc(b1-3)]Gal(b1-4)Glc
# Summary of the method: as §1
# [12] = molecular target: Gal(b1-3)GlcNAc(b1-3)Gal(b1-4)[Fuc(a1-3)]GlcNAc
# Summary of the method: as §1
# [13] = molecular target: Gal(b1-3)GlcNAc(b1-3)Gal(b1-4)[Fuc(a1-3)]GlcNAc(b1-6)[Gal(b1-3)GlcNAc(b1-3)]Gal(b1-4)Glc
# Summary of the method: as §1
# [14] = molecular target: Gal(b1-3)GlcNAc(b1-3)GalNAc
# Summary of the method: as §1
# [15] = molecular target: Gal(b1-3)GlcNAc(b1-6)Gal(b1-4)GlcNAc
# Summary of the method: as §1
# [16] = molecular target: Gal(b1-3)GlcNAc(b1-6)GalNAc
# Summary of the method: as §1
# [17] = molecular target: Gal(b1-3)GlcNAc(b1-6)[Gal(b1-3)]GalNAc
# Summary of the method: as §1
# Gal(b1-3)GlcNAc6S = molecular target: Gal(b1-3)GlcNAc6S
# Summary of the method: as §1
# [18] = molecular target: Gal(b1-3)[Fuc(a1-4)]GlcNAc
# Summary of the method: as §1
# [19] = molecular target: Gal(b1-3)[Fuc(a1-4)]GlcNAc(b1-2)Man
# Summary of the method: as §1
# [20] = molecular target: Gal(b1-3)[Fuc(a1-4)]GlcNAc(b1-2)Man(a1-3)[Gal(b1-3)[Fuc(a1-4)]GlcNAc(b1-2)Man(a1-6)]Man(b1-4)GlcNAc(b1-4)[Fuc(a1-6)]GlcNAc
# Summary of the method: as §1
# [21] = molecular target: Gal(b1-3)[Fuc(a1-4)]GlcNAc(b1-3)Gal(b1-3)[Fuc(a1-4)]GlcNAc
# Summary of the method: as §1
# [22] = molecular target: Gal(b1-3)[Fuc(a1-4)]GlcNAc(b1-3)Gal(b1-4)[Fuc(a1-3)]GlcNAc
# Summary of the method: as §1
# [23] = molecular target: Gal(b1-3)[Fuc(a1-4)]GlcNAc(b1-6)GalNAc
# Summary of the method: as §1
# [24] = molecular target: Gal(b1-3)[GlcNAc(b1-6)]GalNAc
# Summary of the method: as §1
# [25] = molecular target: Gal(b1-3)[Neu5Ac(a2-6)]GalNAc
# Summary of the method: as §1
# [26] = molecular target: Gal(b1-3)[Neu5Ac(a2-6)]GlcNAc(b1-4)Gal(b1-4)Glc
# Summary of the method: as §1
# [27] = molecular target: Gal(b1-3)[Neu5Ac(b2-6)]GalNAc
# Summary of the method: as §1
# Gal(b1-4)Gal = molecular target: Gal(b1-4)Gal
# Summary of the method: as §1
# [28] = molecular target: Gal(b1-4)GalNAc(a1-3)[Fuc(a1-2)]Gal(b1-4)GlcNAc
# Summary of the method: as §1
# [29] = molecular target: Gal(b1-4)GalNAc(b1-3)[Fuc(a1-2)]Gal(b1-4)GlcNAc
# Summary of the method: as §1
# Gal(b1-4)Glc = molecular target: Gal(b1-4)Glc
# Summary of the method: as §1
# Gal(b1-4)Glc6S = molecular target: Gal(b1-4)Glc6S
# Summary of the method: as §1
# Gal(b1-4)GlcNAc = molecular target: Gal(b1-4)GlcNAc
# Summary of the method: as §1
# [30] = molecular target: Gal(b1-4)GlcNAc(a1-6)Gal(b1-4)GlcNAc
# Summary of the method: as §1
# Gal(b1-4)GlcNAc(b1-2)Man = molecular target: Gal(b1-4)GlcNAc(b1-2)Man
# Summary of the method: as §1
# [31] = molecular target: Gal(b1-4)GlcNAc(b1-2)Man(a1-3)Man(b1-4)GlcNAc(b1-4)GlcNAc
# Summary of the method: as §1
# [32] = molecular target: Gal(b1-4)GlcNAc(b1-2)Man(a1-3)[Gal(b1-4)GlcNAc(b1-2)Man(a1-6)]Man(b1-4)GlcNAc(b1-4)GlcNAc
# Summary of the method: as §1
# [33] = molecular target: Gal(b1-4)GlcNAc(b1-2)Man(a1-3)[Gal(b1-4)GlcNAc(b1-2)Man(a1-6)]Man(b1-4)GlcNAc(b1-4)[Fuc(a1-6)]GlcNAc
# Summary of the method: as §1
# [34] = molecular target: Gal(b1-4)GlcNAc(b1-2)Man(a1-3)[Gal(b1-4)GlcNAc(b1-2)Man(a1-6)][Gal(b1-4)GlcNAc(b1-4)]Man(b1-4)GlcNAc(b1-4)[Fuc(a1-6)]GlcNAc
# Summary of the method: as §1
# [35] = molecular target: Gal(b1-4)GlcNAc(b1-2)Man(a1-3)[Gal(b1-4)GlcNAc(b1-2)Man(a1-6)][GlcNAc(b1-4)]Man(b1-4)GlcNAc(b1-4)[Fuc(a1-6)]GlcNAc
# Summary of the method: as §1
# [36] = molecular target: Gal(b1-4)GlcNAc(b1-2)Man(a1-3)[GlcNAc(b1-2)Man(a1-6)]Man(b1-4)GlcNAc(b1-4)GlcNAc
# Summary of the method: as §1
# [37] = molecular target: Gal(b1-4)GlcNAc(b1-2)Man(a1-3)[GlcNAc(b1-4)][Gal(b1-4)GlcNAc(b1-2)Man(a1-6)]Man(b1-4)GlcNAc(b1-4)GlcNAc
# Summary of the method: as §1
# [38] = molecular target: Gal(b1-4)GlcNAc(b1-2)Man(a1-3)[Man(a1-6)]Man(b1-4)GlcNAc(b1-4)GlcNAc
# Summary of the method: as §1
# [39] = molecular target: Gal(b1-4)GlcNAc(b1-2)Man(a1-6)Man(b1-4)GlcNAc(b1-4)GlcNAc
# Summary of the method: as §1
binder,measurement,setting,value
B1,glycan array binding signal (z-score),[1],-0.171
same,glycan array binding signal (z-score),[2],-0.17
same,glycan array binding signal (z-score),[3],-0.174
same,glycan array binding signal (z-score),[4],-0.198
same,glycan array binding signal (z-score),[5],-0.175
same,glycan array binding signal (z-score),[6],-0.173
same,glycan array binding signal (z-score),[7],-0.177
same,glycan array binding signal (z-score),[8],-0.171
same,glycan array binding signal (z-score),[9],-0.09
same,glycan array binding signal (z-score),[10],-0.161
same,glycan array binding signal (z-score),[11],-0.17
same,glycan array binding signal (z-score),[12],-0.176
same,glycan array binding signal (z-score),[13],-0.176
same,glycan array binding signal (z-score),[14],-0.173
same,glycan array binding signal (z-score),[15],-0.179
same,glycan array binding signal (z-score),[16],6.2
same,glycan array binding signal (z-score),[17],-0.16
same,glycan array binding signal (z-score),Gal(b1-3)GlcNAc6S,-0.176
same,glycan array binding signal (z-score),[18],-0.176
same,glycan array binding signal (z-score),[19],-0.169
same,glycan array binding signal (z-score),[20],-0.166
same,glycan array binding signal (z-score),[21],-0.176
same,glycan array binding signal (z-score),[22],-0.173
same,glycan array binding signal (z-score),[23],-0.086
same,glycan array binding signal (z-score),[24],-0.158
same,glycan array binding signal (z-score),[25],-0.176
same,glycan array binding signal (z-score),[26],-0.177
same,glycan array binding signal (z-score),[27],-0.178
same,glycan array binding signal (z-score),Gal(b1-4)Gal,-0.186
same,glycan array binding signal (z-score),[28],-0.175
same,glycan array binding signal (z-score),[29],-0.178
same,glycan array binding signal (z-score),Gal(b1-4)Glc,-0.171
same,glycan array binding signal (z-score),Gal(b1-4)Glc6S,-0.172
same,glycan array binding signal (z-score),Gal(b1-4)GlcNAc,-0.175
same,glycan array binding signal (z-score),[30],-0.172
same,glycan array binding signal (z-score),Gal(b1-4)GlcNAc(b1-2)Man,-0.169
same,glycan array binding signal (z-score),[31],-0.175
same,glycan array binding signal (z-score),[32],-0.176
same,glycan array binding signal (z-score),[33],-0.173
same,glycan array binding signal (z-score),[34],-0.182
same,glycan array binding signal (z-score),[35],-0.179
same,glycan array binding signal (z-score),[36],-0.176
same,glycan array binding signal (z-score),[37],-0.177
same,glycan array binding signal (z-score),[38],-0.172
same,glycan array binding signal (z-score),[39],-0.173
